biological target: T1, biotinylated truncated STAT6 (123-632)-avi (Homo sapiens, UniProt P42226); assay: Homogenous Time-Resolved Fluorescence (HTRF) binding assay; conditions: 0.15 nM biotinylated truncated STAT6 (123-632)-avi, 20 nM fluorescein-labeled probe, 30 minutes at room temperature
T1 sequence (P42226 123-632 limits assumed): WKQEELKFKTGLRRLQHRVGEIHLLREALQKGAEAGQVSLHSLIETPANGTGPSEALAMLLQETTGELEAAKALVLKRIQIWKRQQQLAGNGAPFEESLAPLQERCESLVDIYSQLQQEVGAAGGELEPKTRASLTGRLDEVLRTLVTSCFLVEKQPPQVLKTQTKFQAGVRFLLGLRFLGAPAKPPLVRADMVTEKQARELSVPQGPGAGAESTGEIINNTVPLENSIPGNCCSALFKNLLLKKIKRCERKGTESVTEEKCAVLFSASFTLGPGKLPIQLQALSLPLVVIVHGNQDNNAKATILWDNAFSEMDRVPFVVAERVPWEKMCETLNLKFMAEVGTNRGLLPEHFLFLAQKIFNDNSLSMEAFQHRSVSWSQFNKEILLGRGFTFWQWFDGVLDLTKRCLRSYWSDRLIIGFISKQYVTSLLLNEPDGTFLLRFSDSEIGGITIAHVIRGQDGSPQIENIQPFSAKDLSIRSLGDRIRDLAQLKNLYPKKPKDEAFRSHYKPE

SMILES	IC50
COc1cc(F)cnc1N1CCN(C(=O)c2cc3c(C4=CCC(N5CCOCC5)CC4)cc(C4=CCCN(C(=O)CCn5ccnn5)C4)c(F)c3[nH]2)CC1 (stereo not shown) [Example I-1153]	< 100 nM
COc1cc(F)cnc1N1CCN(C(=O)c2cc3c(-c4cccc(CN5CCOCC5)c4)cc(C4=CCCN(C(=O)CCn5ccnn5)C4)c(F)c3[nH]2)CC1 [Example I-1154]	< 100 nM
COc1cc(F)cnc1N1CCN(C(=O)c2cc3c(C4=COCCC4)cc(C4=CCCN(C(=O)CCn5ccnn5)C4)c(F)c3[nH]2)CC1 [Example I-1155]	< 100 nM
COc1cc(F)cnc1N1CCN(C(=O)c2cc3c(C4=CCOCC4)cc(C4=CCCN(C(=O)CCn5ccnn5)C4)c(F)c3[nH]2)CC1 [Example I-1156]	< 100 nM
COc1cc(F)cnc1N1CCN(C(=O)c2cc3c(-c4ccc(C5CC5)cc4)cc(C4=CCCN(C(=O)CCn5ccnn5)C4)c(F)c3[nH]2)CC1 [Example I-1157]	< 100 nM
COc1cc(F)cnc1N1CCN(C(=O)c2cc3c(C4=CCC(F)(F)CC4)cc(C4=CCCN(C(=O)CCn5ccnn5)C4)c(F)c3[nH]2)CC1 [Example I-1158]	< 100 nM
COc1cc(F)cnc1N1CCN(C(=O)c2cc3c(-c4ccc(C(F)F)cc4)cc(C4=CCCN(C(=O)CCn5ccnn5)C4)c(F)c3[nH]2)CC1 [Example I-1160]	< 100 nM
COc1cc(F)cnc1N1CCN(C(=O)c2cc3c(C4=Cc5ccccc5C4)cc(C4=CCCN(C(=O)CCn5ccnn5)C4)c(F)c3[nH]2)CC1 [Example I-1161]	100 to 1000 nM
COc1cc(F)cnc1N1CCN(C(=O)c2cc3c(/C=C/CCl)cc(C4=CCCN(C(=O)CCn5ccnn5)C4)c(F)c3[nH]2)CC1 [Example I-1162]	1000 to 10000 nM
COc1cc(F)cnc1N1CCN(C(=O)c2cc3c(/C=C/C4CCCCC4)cc(C4=CCCN(C(=O)CCn5ccnn5)C4)c(F)c3[nH]2)CC1 [Example I-1163]	100 to 1000 nM
COc1cc(F)cnc1N1CCN(C(=O)c2cc3c(-c4ccc(OCC5CC5)nc4)cc(C4=CCCN(C(=O)CCn5ccnn5)C4)c(F)c3[nH]2)CC1 [Example I-1164]	100 to 1000 nM
COc1cc(F)cnc1N1CCN(C(=O)c2cc3c(-c4ccc(C(=O)N(C)C)cc4)cc(C4=CCCN(C(=O)CCn5ccnn5)C4)c(F)c3[nH]2)CC1 [Example I-1165]	< 100 nM
COc1cc(F)cnc1N1CCN(C(=O)c2cc3c(-c4ccc(C(F)(F)F)cc4CO)cc(C4=CCCN(C(=O)CCn5ccnn5)C4)c(F)c3[nH]2)CC1 [Example I-1167]	< 100 nM
CCC1CCCC=C1c1cc(C2=CCCN(C(=O)CCn3ccnn3)C2)c(F)c2[nH]c(C(=O)N3CCN(c4ncccc4OC)CC3)cc12 (stereo not shown) [Example I-1168]	100 to 1000 nM
CCc1ccncc1-c1cc(C2=CCCN(C(=O)CCC(=O)O)C2)c(F)c2[nH]c(C(=O)N3CCN(c4ncc(F)cc4OC)CC3)cc12 [Example I-1170]	100 to 1000 nM
COc1ccccc1-c1cc(C2=CCCN(C(=O)CCn3ccnn3)C2)c(F)c2[nH]c(CN3CCN(c4ncccc4OC)CC3=O)cc12 [Example I-1171]	100 to 1000 nM
CCC1=C(c2cc(C3=CCCN(C(=O)CCn4ccnn4)C3)c(F)c3[nH]c(C(=O)N4CCN(c5ncc(F)cc5OC)CC4)cc23)CCCC1 [Example I-1172]	100 to 1000 nM
CCOC(=O)CC(=O)N1CCC=C(c2cc3cc(C(=O)N4CCN(c5ncc(F)cc5OC)CC4)cc(-c4ccc(C)nc4CC)c3n2CC2CC2)C1 [Example I-1173]	100 to 1000 nM
CCn1nccc1-c1cc(C2=CCCN(C(C)=O)C2)c(F)c2[nH]c(C(=O)N3Cc4cnn(CC)c4C3)cc12 [Example I-1176]	< 100 nM
CN(C)C(=O)c1cc2cc(C3=CCCN(C(=O)CCn4ccnn4)C3)cc(CN3CCCCC3)c2o1 [Example I-1178]	100 to 1000 nM
CN(C)C(=O)c1cc2cc(C3=CCCN(C(=O)CCn4ccnn4)C3)cc(CN3CCNCC3)c2o1 [Example I-1179]	< 100 nM
CN(C)C(=O)c1cc2cc(C3=CCCN(C(=O)CCn4ccnn4)C3)cc(CN3CC(N)C3)c2o1 [Example I-1180]	< 100 nM
COc1ccccc1-c1cc(C2=CCCN(C(=O)CCn3ccnn3)C2)c(F)c2[nH]c(C(=O)N3CCN(C4CC5CCC4C5)CC3)cc12 (stereo not shown) [Example I-1181]	< 100 nM
COc1ccccc1-c1cc(C2=CCCN(C(=O)CCn3ccnn3)C2)c(F)c2[nH]c(C(=O)N3CCN(CC4(C)COC4)CC3)cc12 [Example I-1183]	< 100 nM
COc1ccccc1-c1cc(C2=CCCN(C(=O)CCn3ccnn3)C2)c(F)c2[nH]c(C(=O)N3CCN(CC4CCCO4)CC3)cc12 (stereo not shown) [Example I-1184]	< 100 nM

SMILES	IC50
COc1ccccc1-c1cc(C2=CCCN(C(=O)CCn3ccnn3)C2)c(F)c2[nH]c(C(=O)N3CCN(Cc4nc(C)cs4)CC3)cc12 [Example I-1185]	< 100 nM
CC(=O)N1CCN(c2cc(C3=CCCN(C(=O)CCn4ccnn4)C3)cc3cc(C(=O)N(C)C)oc23)CC1 [Example I-1186]	< 100 nM
CN(C)C(=O)c1cc2ccc(C3CCCN(C(=O)CCn4ccnn4)C3)cc2[nH]1 (stereo not shown) [Example I-1188]	100 to 1000 nM
CN(C)C(=O)c1cc2ccc([C@H]3CCCN(C(=O)CCn4ccnn4)C3)cc2[nH]1 [Example I-1189]	100 to 1000 nM
COc1ccccc1-c1cc(C2=CCCN(C(=O)C(C)C)C2)c(F)c2cc(C(=O)N(C)C)oc12 [Example I-1190]	100 to 1000 nM
CN(C)C(=O)c1cc2c(F)c(C3=CCCN(C(=O)C4Cc5ccccc5CN4C=O)C3)ccc2o1 (stereo not shown) [Example I-1192]	1000 to 10000 nM
COc1ccccc1-c1cc(C2CCCN(C(=O)CCn3ccnn3)C2)c(F)c2[nH]c(C(=O)N(C)C)cc12 (stereo not shown) [Example I-1193]	< 100 nM
COc1ccccc1-c1cc([C@H]2CCCN(C(=O)CCn3ccnn3)C2)c(F)c2[nH]c(C(=O)N(C)C)cc12 [Example I-1195]	> 100000 nM
COc1ccc(C)cc1-c1cc(C2=CCCN(C(=O)C3Cc4ccccc4CN3C=O)C2)cc2cc(C(=O)N(C)C)oc12 (stereo not shown) [Example I-1197]	100 to 1000 nM
COc1ccccc1-c1cc(C2=CCCN(C(=O)CCn3ccnn3)C2)c(F)c2[nH]c(C(=O)N3CCN(Cc4cccn(C)c4=O)CC3)cc12 [Example I-1198]	< 100 nM
COc1ccccc1-c1cc(C2=CCCN(C(=O)CCn3ccnn3)C2)c(F)c2[nH]c(C(=O)N3CCN(CC(=O)NC(C)C)CC3)cc12 [Example I-1200]	< 100 nM
COc1ccccc1-c1cc(C2=CCCN(C(=O)CCn3ccnn3)C2)c(F)c2[nH]c(C(=O)N3CCN(Cc4noc(C)n4)CC3)cc12 [Example I-1201]	< 100 nM
COc1ccccc1-c1cc(C2=CCCN(C(=O)CCn3ccnn3)C2)c(F)c2[nH]c(C(=O)N3CCN(Cc4ccccc4)CC3)cc12 [Example I-1202]	< 100 nM
COc1cc(F)cnc1N1CCN(C(=O)c2cc(-c3cccnc3C3CC3)c3[nH]c(C4CCCN(C(=O)CCn5ccnn5)C4)cc3c2)CC1 (stereo not shown) [Example I-1204]	1000 to 10000 nM
CCc1ccncc1-c1cc(C2=CCCC(C(=O)O)C2)c(F)c2[nH]c(C(=O)N3CCN(c4ncc(F)cc4OC)CC3)cc12 (stereo not shown) [Example I-1205]	1000 to 10000 nM
COc1ccccc1-c1cc(C2=CCCN(C(=O)CCn3ccnn3)C2)c(F)c2[nH]c(C(=O)N3CCN(c4cccn5cnnc45)CC3)cc12 [Example I-1206]	< 100 nM
CCC1CN(C)CC1c1cc(C2=CCCN(C(=O)CCn3ccnn3)C2)c(F)c2[nH]c(C(=O)N3CCN(c4ncc(F)cc4OC)CC3)cc12 (stereo not shown) [Example I-1208, 1-[5-[4-(4-ethyl-1-methyl-pyrrolidin-3-yl)-7-fluoro-2-[4-(5-fluoro-3-methoxy-2-pyridyl)piperazine-1-carbonyl]-1H-indol-6-yl]-3,6-dihydro-2H-pyridin-1-yl]-3-(triazol-1-yl)propan-1-one]	< 100 nM
CCn1ncc2c1CN(C(=O)c1cc3c([C@H]4CCN(C)C4)cc(C4=CCCN(C(=O)CCn5ccnn5)C4)c(F)c3[nH]1)C2 [Example I-1210]	< 100 nM
CCc1nc(C)ccc1-c1cc(C(=O)N2CCN(c3ncc(F)cc3OC)CC2)cc2cc(C3=CCCN(C(=O)CCn4ccnn4)C3)sc12 [Example I-1211]	< 100 nM
CCc1nc(C)ccc1-c1cc(C(=O)N2Cc3cnn(CC)c3C2)cc2sc(C3=CCCN(C(=O)CCn4ccnn4)C3)cc12 [Example I-1214]	< 100 nM
CCc1nc(C)ccc1-c1cc(C(=O)N2Cc3cnn(CC)c3C2)cc2sc(C3=CCCN(C(=O)CCn4ccnn4)C3)nc12 [Example I-1215]	< 100 nM
CCc1nc(C)ccc1-c1cc(C(=O)N2CCN(c3ncc(F)cc3OC)CC2)cc2c(F)c(C3=CCCN(C(=O)CC(=O)O)C3)n(CC3CC3)c12 [Example I-1216]	> 100000 nM
CCc1nc(C)ccc1-c1cc(C(=O)N2CCN(c3ncc(F)cc3OC)CC2)cc2c(F)c(C3=CCCN(C(C)=O)C3)n(CC3CC3)c12 [Example I-1217]	< 100 nM
CCc1nc(C)ccc1-c1cc(C(=O)N2Cc3cnn(CC)c3C2)cc2c(F)c(C3=CCCN(C(C)=O)C3)n(CC3CC3)c12 [Example I-1218]	< 100 nM

same assay, conditions: 0.15 nM biotinylated truncated STAT6 (123-632)-avi, 20 nM fluorescein-labeled probe, 30 minutes room temperature

SMILES	IC50
CCc1nc(C)ccc1-c1cc(C(=O)N2Cc3cnn(CC)c3C2)cc2c(F)c(C3=CCCN(C(=O)CCn4ccnn4)C3)n(CC3CC3)c12 [Example I-1219]	> 100000 nM
CCn1ccnc1-c1cc(C2=CCCN(C(=O)CCn3ccnn3)C2)c(F)c2[nH]c(C(=O)N3Cc4cnn(CC)c4C3)cc12 [Example I-1220]	< 100 nM
CCc1ccc(-c2cc(C(=O)N3CCN(c4ncc(F)cc4OC)CC3)cc3cc(C4=CCCN(C(=O)CC(=O)O)C4)n(CC(C)C)c23)c(C)n1 [Example I-1222]	< 100 nM
